The experiment concerns mPer2Luc MEF. The experiment can be described thus: PER2::LUC luminescence relative to vehicle control (fold of vehicle); higher = higher PER2::LUC reporter signal. The note with it: 10 µM. Put shortly:
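Each value gives PER2::LUC luminescence as fold of vehicle control, measured with the ONE-Glo luciferase assay system in mouse embryonic fibroblasts carrying the mPer2Luc reporter. Cells grown in DMEM with 10% FBS at 37 °C and 5% CO2 were seeded at ~3000 per well in 384-well plates. Library compounds were added at 10 μM 48 h later, and readings were taken 24 h and 30 h after treatment.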

The text below walks through data of the supplement of paper PMC9334596.

“And” between values parts separate entries of the source, which are not always exact repeats. Equal entries are not always repeated. In all, about 5,300 compounds were measured (“PER2::LUC luminescence relative to vehicle control”: median about 0.96, highest 2% from about 1.3 on). The list shows a part of the results.

For the compound `CC(N)(Cc1ccc(O)c(O)c1)C(=O)O` (stereo not drawn), the “PER2::LUC luminescence” value by setting is: (time after treatment 24 h) 0.993; (time after treatment 30 h) 1.08.

`O=C(O)CCC(=O)Nc1ccc(Br)cn1`: the “PER2::LUC luminescence” value worked out at 1.03 (time after treatment 24 h) and 1.03 (time after treatment 30 h).

Take `CC(=O)N[C@@H](CCC(N)=O)C(=O)O`: the “PER2::LUC luminescence” value (time after treatment 24 h) was found to be 0.758 and the “PER2::LUC luminescence” value (time after treatment 30 h) was 1.14.

For the compound `COc1ccc(-c2c(O)c3c(OC)c4c(cc3oc2=O)OC(C)(C)C=C4)cc1`, the “PER2::LUC luminescence” value is, setting by setting: (time after treatment 24 h) 1.5; (time after treatment 30 h) 1.46.

With `CC(C)(Oc1ccc(Cl)cc1)C(=O)O`, the “PER2::LUC luminescence” value came out at 0.944 (time after treatment 24 h) and 0.888 (time after treatment 30 h).

For the compound `CC(=O)[C@@]1(O)CC[C@H]2[C@@H]3CCC4=CC(=O)CCC4=C3[C@@H](c3ccc(N(C)C)cc3)C[C@@]21C`, the “PER2::LUC luminescence” value runs as follows: (time after treatment 24 h) 0.8; (time after treatment 30 h) 0.786.

For `CC[C@H]1OC(=O)[C@@](C)(F)C(=O)[C@H](C)[C@@H](O[C@@H]2O[C@H](C)C[C@H](N(C)C)[C@H]2O)[C@](C)(OC)C[C@@H](C)C(=O)[C@H](C)[C@H]2N(CCCCn3cc(-c4cccc(N)c4)nn3)C(=O)O[C@]12C`, the “PER2::LUC luminescence” value (time after treatment 24 h) is 0.829 and the “PER2::LUC luminescence” value (time after treatment 30 h) came out at 0.845.

`CNC(=O)c1cccc(NC(=O)N2CCC(Oc3ccccc3Cl)CC2)c1`: the “PER2::LUC luminescence” value is, setting by setting: (time after treatment 24 h) 0.824; (time after treatment 30 h) 0.732.

Regarding `CN1CCCN=C1COC(=O)C(O)(c1ccccc1)C1CCCCC1` (stereo not drawn), the “PER2::LUC luminescence” value reads like this: (time after treatment 24 h) 0.671; (time after treatment 30 h) 0.984.

Consider `COc1cc(Nc2ncc(F)c(Nc3ccc4c(n3)NC(=O)C(C)(C)O4)n2)cc(OC)c1OC`, for which the “PER2::LUC luminescence” value reads like this: (time after treatment 24 h) 0.597; (time after treatment 30 h) 0.603.

`CSc1ccc(C(=O)c2[nH]c(=O)[nH]c2C)cc1`: the “PER2::LUC luminescence” value turned out to be 1.13 (time after treatment 24 h) and 1.12 (time after treatment 30 h).

As to `CC(C(=O)Nc1cc(C#N)ccc1CCCC(=O)O)c1ccc(F)c2ccccc12` (stereo not drawn), the “PER2::LUC luminescence” value was found to be 1.06 (time after treatment 24 h) and 1.03 (time after treatment 30 h).

As for `CCC(=O)OCC(=O)[C@@]1(OC(=O)CC)[C@H](C)CC2C3C([C@@H](O)C[C@@]21C)[C@@]1(C)C=CC(=O)C=C1C[C@H]3Cl` (stereo partly drawn), the “PER2::LUC luminescence” value (time after treatment 24 h) was 0.542 and the “PER2::LUC luminescence” value (time after treatment 30 h) came out at 0.871.

For the compound `CO[C@H]1C[C@H](O[C@H]2[C@H](C)[C@@H](O[C@@H]3O[C@H](C)C[C@H](N(C)C)[C@H]3OC(C)=O)[C@@H](C)C[C@@]3(CO3)C(=O)[C@H](C)[C@@H](OC(C)=O)[C@@H](C)[C@@H](C)OC(=O)[C@@H]2C)O[C@@H](C)[C@@H]1OC(C)=O`, the “PER2::LUC luminescence” value runs as follows: (time after treatment 24 h) 1.07; (time after treatment 30 h) 1.09.

As for `COc1ccc(-c2ccc(=N)n(CCCC(=O)O)n2)cc1`, the “PER2::LUC luminescence” value runs as follows: (time after treatment 24 h) 1.1 and 1.01; (time after treatment 30 h) 0.985 and 0.949.

With `O=C(O)C1CSCN1` (stereo not drawn), the “PER2::LUC luminescence” value runs as follows: (time after treatment 24 h) 0.902; (time after treatment 30 h) 0.929.

On to `CC(C)(S)[C@@H](N)C(=O)O`, for which the “PER2::LUC luminescence” value reads like this: (time after treatment 24 h) 0.875 and 0.939; (time after treatment 30 h) 1.02 and 0.943.

With `C=CCCCCCCCCCCCC(O)CC(O)COC(C)=O` (stereo not drawn), the “PER2::LUC luminescence” value (time after treatment 24 h) stood at 0.894 and the “PER2::LUC luminescence” value (time after treatment 30 h) is 0.95.

Turning to `Cc1ccc(NC(=O)c2ccc(CN3CC[C@H](N(C)C)C3)c(C(F)(F)F)c2)cc1Nc1nccc(-c2cncnc2)n1`, the “PER2::LUC luminescence” value by setting is: (time after treatment 24 h) 0.561; (time after treatment 30 h) 0.628.

`NCC1CCC(C(=O)O)CC1` (stereo not drawn): the “PER2::LUC luminescence” value is, setting by setting: (time after treatment 24 h) 0.928; (time after treatment 30 h) 1.

As for `CC1(C)CCC(CN2CCN(c3ccc(C(=O)NS(=O)(=O)c4ccc(NCC5CCOCC5)c([N+](=O)[O-])c4)c(Oc4cnc5[nH]ccc5c4)c3)CC2)=C(c2ccc(Cl)cc2)C1`, the “PER2::LUC luminescence” value (time after treatment 24 h) was 1.18 and the “PER2::LUC luminescence” value (time after treatment 30 h) turned out to be 1.21.

With `CCCCCCCCCCC[C@@H](C[C@@H]1OC(=O)[C@H]1CCCCCC)OC(=O)[C@H](CC(C)C)NC=O`, the “PER2::LUC luminescence” value (time after treatment 24 h) amounted to 0.76 and the “PER2::LUC luminescence” value (time after treatment 30 h) amounted to 0.994.

With `CS(=O)(=O)c1cccc(CNc2nc(Nc3ccc4c(c3)CCC(=O)N4)ncc2C(F)(F)F)c1`, the “PER2::LUC luminescence” value came to 0.647 (time after treatment 24 h) and 0.495 (time after treatment 30 h).

On to `Cn1c(=O)c2c(ncn2CC(=O)O)n(C)c1=O`, for which the “PER2::LUC luminescence” value runs as follows: (time after treatment 24 h) 0.921; (time after treatment 30 h) 0.927.

As for `O=C1O[C@H](CO)[C@@H](O)[C@H](O)[C@H]1O`, the “PER2::LUC luminescence” value reads like this: (time after treatment 24 h) 0.949 and 0.615; (time after treatment 30 h) 0.958 and 0.806.

`O=C(CC(c1ccccc1)c1ccccc1)N1CCN(C(c2ccccc2)c2ccccc2)CC1`: the “PER2::LUC luminescence” value worked out at 1.08 (time after treatment 24 h) and 1.18 (time after treatment 30 h).

Consider `COc1cc(C/C=C/c2ccccc2)c(OC)cc1O`, for which the “PER2::LUC luminescence” value was 0.977 (time after treatment 24 h) and 0.906 (time after treatment 30 h).

With `S=C(Nc1ccccc1)Nc1nccs1`, the “PER2::LUC luminescence” value came out at 1.46 (time after treatment 24 h) and 1.58 (time after treatment 30 h).

Turning to `COc1ccc(-c2oc3ccccc3c(=O)c2OC)cc1`, the “PER2::LUC luminescence” value is, setting by setting: (time after treatment 24 h) 0.987; (time after treatment 30 h) 1.2.

As for `N=C(N)N`, the “PER2::LUC luminescence” value (time after treatment 24 h) came to 0.89 and the “PER2::LUC luminescence” value (time after treatment 30 h) is 0.961.

On to `O=C1CCC(N2C(=O)c3ccccc3C2=O)C(=O)N1` (racemic), for which the “PER2::LUC luminescence” value worked out at 0.853 (time after treatment 24 h) and 1.03 (time after treatment 30 h).

As for `C[C@]12CC[C@H]3C(=CCc4cc(O)ccc43)[C@@H]1CCC2=O`, the “PER2::LUC luminescence” value turned out to be 1.12 (time after treatment 24 h) and 1.27 (time after treatment 30 h).

As for `C[C@]12C=CC(=O)C=C1CC[C@@H]1[C@@H]2[C@@H](O)C[C@@]2(C)[C@H]1CC[C@]2(O)C(=O)COP(=O)(O)O`, the “PER2::LUC luminescence” value (time after treatment 24 h) stood at 0.565 and the “PER2::LUC luminescence” value (time after treatment 30 h) was 0.913.

On to `O=C(c1ccc2nccnc2c1)N1CCCCC1`, for which the “PER2::LUC luminescence” value was determined as 1.12 (time after treatment 24 h) and 1.12 (time after treatment 30 h).

Turning to `CNC(=O)[C@H]1O[C@@H](n2cnc3c(NCc4cccc(I)c4)ncnc32)[C@H](O)[C@@H]1O`, the “PER2::LUC luminescence” value (time after treatment 24 h) was 1.08 and the “PER2::LUC luminescence” value (time after treatment 30 h) was found to be 0.882.

As to `C=C[C@H]1CN2CC[C@H]1C[C@@H]2[C@@H](O)c1ccnc2ccc(OC)cc12`, the “PER2::LUC luminescence” value (time after treatment 24 h) was 0.899 and 0.774 and 0.856; the “PER2::LUC luminescence” value (time after treatment 30 h) was 0.88 and 0.973 and 0.871.

Turning to `Cc1c(C(N)=O)cc([N+](=O)[O-])cc1[N+](=O)[O-]`, the “PER2::LUC luminescence” value reads like this: (time after treatment 24 h) 0.975; (time after treatment 30 h) 0.949.

With `C=CCN1CCN(c2nc3ccccc3nc2C#N)CC1`, the “PER2::LUC luminescence” value came to 0.928 (time after treatment 24 h) and 1 (time after treatment 30 h).

With `CC(C)C(=O)OC[C@H]1O[C@@H](n2ccc(N)nc2=O)[C@](C)(F)[C@@H]1OC(=O)C(C)C`, the “PER2::LUC luminescence” value is, setting by setting: (time after treatment 24 h) 1.07; (time after treatment 30 h) 1.03.

As for `NC(N)=NCCNS(=O)(=O)c1cccc2cnccc12`, the “PER2::LUC luminescence” value turned out to be 1.13 (time after treatment 24 h) and 1 (time after treatment 30 h).

`CN(C)c1ccc2nc3ccc(=[N+](C)C)cc-3sc2c1`: the “PER2::LUC luminescence” value was 0.944 and 0.77 (time after treatment 24 h); 0.769 and 0.373 (time after treatment 30 h).

As for `COc1ccc(C2C(=O)c3ccccc3C2=O)cc1`, the “PER2::LUC luminescence” value came out at 1.08 (time after treatment 24 h) and 1.36 (time after treatment 30 h).

`Cc1cccc(C)c1NC(=O)C1CCCCN1C` (stereo not drawn): the “PER2::LUC luminescence” value is 0.744 (time after treatment 24 h) and 1 (time after treatment 30 h).

Consider `CCc1nc(-c2cccc(C)c2)c(-c2ccnc(NC(=O)c3ccccc3)c2)s1`, for which the “PER2::LUC luminescence” value was determined as 0.637 (time after treatment 24 h) and 0.991 (time after treatment 30 h).
